Experimental data as given in PubChem BioAssay AID2546 (National Center for Advancing Translational Sciences (NCATS), 2010).
About 11,000 (3.5%) of roughly 310,000 compounds were called active. Inconclusive means that the source gave no clear call. Such entries were picked first, then a sample of the others. Calls come from the whole dose curve; as a rule, active = well fitted inhibition curve with a large enough effect; inconclusive = small, poorly fitted or top-dose-only effect, or effect the other way; inactive = flat fitted curve, though single readings scatter. No potency is given beside an inconclusive call; the fits are too rough.

assay: VP16 counterscreen qHTS for inhibitors of ROR gamma transcriptional activity; conditions: Drosophila S2 Gal4-VP16 UAS-luciferase, luminescence, 20 h; activity, negative = inhibition: at 53.6 µM (top of the series);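 note: Gal4-VP16 expression switched on by copper sulfate through the metallothionein promoter; nearly all actives have a fitted effect of over 50% in size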
% is set by controls: 0 for no effect and ±100 for the full control effect; potency is the fitted concentration of half-maximal effect; tags give direction and shape of the fitted curve.

SMILES	Potency	activity, negative = inhibition
O=C/C(=C\Nc1ccc(Cl)cn1)c1nc2ccccc2o1	active: 22.4 µM	–
O=[N+]([O-])/C=C/c1cc2ccccc2[nH]1	inconclusive [inhibitor, single point]	–
O=C1OC(=O)C2C3CCC(O3)C12 (stereo unspecified)	inactive	–
Cc1c(C(C)C)c(=O)n(-c2ccc(S(=O)(=O)NCc3ccccc3)cc2)n1C	active: 7.94 µM	–
O=S(=O)(c1ccc(F)cc1)c1nc(-c2ccco2)oc1Nc1ccc(F)cc1	–	inactive: -3.72%
NC(=O)CC(NC(=O)c1cccc(Br)c1)c1ccc(N2CCN(c3ccc(F)cc3)CC2)c([N+](=O)[O-])c1 (stereo unspecified)	inconclusive [inhibitor, single point]	–
C=C(C)COc1ccc(-c2[nH]ncc2-c2ccccc2)c(O)c1	inconclusive [inhibitor, single point]	–
CCc1c(-c2n[nH]c(=S)n2Cc2ccccc2)csc1C	active: 7.94 µM	–
Cc1nc(NC(=O)C2CC2)sc1C(=O)Nc1ccc(Br)cc1	inconclusive [inhibitor, single point]	–
Cc1ccc(S(=O)(=O)N[C@H](C(=O)N2CCC(C(=O)N[C@@H](CC(=O)O)C(=O)O)CC2)C(C)C)cc1	–	inactive: 13.8%
CC(C)(C)c1ccc(C2CC2C(=O)N/N=C\c2ccc[nH]2)cc1 (stereo unspecified)	active: 6.31 µM	–
S=C(NCCc1ccccc1)Nc1ccccn1	active: 3.16 µM	–
O=C(/C=C\NCC(=O)c1ccccc1)c1ccc2ccccc2c1	–	inactive: -14.8%
Cc1cc(C(c2ccc(C)o2)c2ccc(C)o2)c(O)c([N+](=O)[O-])c1	–	inactive: -9.76%
COc1ccc(/C=C/C(=O)Nc2ccc(-n3nncc3-c3ccc(OC)c(OC)c3)cc2)cc1OC	–	inactive: 0.326%
CCNC(=O)CCn1nc(-c2ccc(Cl)cc2)c2ccccc2c1=O	inconclusive [inhibitor, single point]	–
C=C(C)COc1ccc(-c2[nH]ncc2Oc2cccc(OC)c2)c(O)c1	inconclusive [inhibitor, single point]	–
Cc1nc(C(F)(F)F)nc(Nc2ccc(N=Nc3ccccc3)cc2)c1C#N	inconclusive [activator, single point]	–
O=C(Nc1nc(-c2nc3ccccc3s2)cs1)C1CC1	inconclusive [inhibitor, full curve]	–
Cc1ccccc1NC(=O)C1CC(=O)OC12CCOC(C)(C)C2 (stereo unspecified)	–	inactive: -2.09%
CCOc1ccccc1CNC(=O)C1CCCN(c2nnc(C)c3c(C)n(-c4ccccc4)nc23)C1 (stereo unspecified)	inconclusive [inhibitor, single point]	–
